Results published in article PMC9911399, “Two distinct binding modes provide the RNA-binding protein RbFox with extraordinary sequence specificity”.
Where a chain is given by its changes, count along the chain named. The list shows a part of the results.

T1: RBFOX1 RRM RbFoxmut (Fox-RRM*) (Homo sapiens, UniProt Q9NWB1 109-208, R118D;E147R;N151S;E152T)
T1 sequence: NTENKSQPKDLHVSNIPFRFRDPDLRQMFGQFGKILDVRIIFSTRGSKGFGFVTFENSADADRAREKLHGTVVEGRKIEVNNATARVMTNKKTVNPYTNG

B1: ACCGUGA (DNA:RNA)
RNA: GGGAGACCGGAAUUCAGAUUGUCCACCGUGAUUAAAUCCCGUCGUAGCCACCA
DNA 1: CAATCTGAATTCCGGTCTCCC
DNA 2: TGGTGGCTACGACGGGATT
B2: UGGUAGU (DNA:RNA)
RNA: B1 RNA with A25U, C26G, C27G, G28U, U29A, A31U
DNA 1: CAATCTGAATTCCGGTCTCCC
DNA 2: TGGTGGCTACGACGGGATT
B3: GACUAGC (DNA:RNA)
RNA: B1 RNA with A25G, C26A, G28U, U29A, A31C
DNA 1: CAATCTGAATTCCGGTCTCCC
DNA 2: TGGTGGCTACGACGGGATT
B4: GAUUUUA (DNA:RNA)
RNA: B1 RNA with A25G, C26A, C27U, G28U, G30U
DNA 1: CAATCTGAATTCCGGTCTCCC
DNA 2: TGGTGGCTACGACGGGATT
B5: UCAUACC (DNA:RNA)
RNA: B1 RNA with A25U, C27A, G28U, U29A, G30C, A31C
DNA 1: CAATCTGAATTCCGGTCTCCC
DNA 2: TGGTGGCTACGACGGGATT
B6: GCCGGCG (DNA:RNA)
RNA: B1 RNA with A25G, U29G, G30C, A31G
DNA 1: CAATCTGAATTCCGGTCTCCC
DNA 2: TGGTGGCTACGACGGGATT
B7: CGAUCAA (DNA:RNA)
RNA: B1 RNA with A25C, C26G, C27A, G28U, U29C, G30A
DNA 1: CAATCTGAATTCCGGTCTCCC
DNA 2: TGGTGGCTACGACGGGATT
B8: CUGCUCC (DNA:RNA)
RNA: B1 RNA with A25C, C26U, C27G, G28C, G30C, A31C
DNA 1: CAATCTGAATTCCGGTCTCCC
DNA 2: TGGTGGCTACGACGGGATT
B9: CAUCAUG (DNA:RNA)
RNA: GGGAGACCGGAAUUCAGAUUGUCCCAUCAUGUUAAAUCCCGUCGUAGCCACCA
DNA 1: CAATCTGAATTCCGGTCTCCC
DNA 2: TGGTGGCTACGACGGGATT

Each binder was assayed against T1, RBFOX1 RRM RbFoxmut (Fox-RRM*) (assay: EMSA; HiTS-Eq, 1 nM pool, 10 min; buffer printed only for the single-RNA assays: 10 mM Tris pH 7.5, 150 mM NaCl, 3.4 mM EDTA, 0.001% NP-40, 30 C). Conditions: tags: His6 N-terminal (pET28a); label: 5' 32P.
Outline: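 A pool of RNA with 7 randomized nucleotides, 5′-radiolabelled and with DNA-annealed flanks, was equilibrated at 1 nM for 10 min in 50 µL with purified RbFox RRM, wild type or mutant, across increasing protein concentrations. Free RNA was separated by 8% native PAGE, excised, reverse-transcribed, barcoded by PCR and sequenced. Relative association constants were obtained from read-count changes of each RNA species versus the control reaction and normalised to the cognate motif.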
With B1 the binding signal was 0.0705 KA relative to UGCAUGU.
For B2, the binding signal was 0.163 KA relative to UGCAUGU.
With B3 the binding signal was 0.0831 KA relative to UGCAUGU.
For B4, the binding signal was 0.0965 KA relative to UGCAUGU.
In the case of B5, the binding signal is reported as 0.0704 KA relative to UGCAUGU.
In the case of B6, the binding signal is reported as 0.121 KA relative to UGCAUGU.
In the case of B7, the binding signal is reported as 0.0695 KA relative to UGCAUGU.
With B8 the binding signal was 0.036 KA relative to UGCAUGU.
In the case of B9, the binding signal is reported as 0.124 KA relative to UGCAUGU.
